Data: PubChem BioAssay AID1030 (National Center for Advancing Translational Sciences (NCATS), 2008)
Screen size: about 220,000 compounds; about 16,000 (7.3%) were called active. Inconclusive results, whose numbers are uncertain, are shown with a selection of clear calls. The call rests on the fitted dose curve; in most records, active means well fitted inhibition curve with a large enough effect (not every such curve was filed as active); inconclusive means small, poorly fitted or top-dose-only effect, or another doubt; inactive means no such curve, though single readings can be large or run the other way. Potencies of inconclusive entries are doubtful fits and often do not repeat.

The molecules below were run against Aldehyde dehydrogenase 1A1 (Homo sapiens) (UniProt P00352) (assay: qHTS Assay for Inhibitors of Aldehyde Dehydrogenase 1 (ALDH1A1)). Conditions: Purified ALDH1A1, NADH fluorescence, propionaldehyde substrate; series mostly up to 75.3 µM.
Potency means the concentration at half of the fitted maximal effect; tags describe the fitted curve by direction and shape.

Chain of UniProt P00352 (P00352 whole entry, looked up): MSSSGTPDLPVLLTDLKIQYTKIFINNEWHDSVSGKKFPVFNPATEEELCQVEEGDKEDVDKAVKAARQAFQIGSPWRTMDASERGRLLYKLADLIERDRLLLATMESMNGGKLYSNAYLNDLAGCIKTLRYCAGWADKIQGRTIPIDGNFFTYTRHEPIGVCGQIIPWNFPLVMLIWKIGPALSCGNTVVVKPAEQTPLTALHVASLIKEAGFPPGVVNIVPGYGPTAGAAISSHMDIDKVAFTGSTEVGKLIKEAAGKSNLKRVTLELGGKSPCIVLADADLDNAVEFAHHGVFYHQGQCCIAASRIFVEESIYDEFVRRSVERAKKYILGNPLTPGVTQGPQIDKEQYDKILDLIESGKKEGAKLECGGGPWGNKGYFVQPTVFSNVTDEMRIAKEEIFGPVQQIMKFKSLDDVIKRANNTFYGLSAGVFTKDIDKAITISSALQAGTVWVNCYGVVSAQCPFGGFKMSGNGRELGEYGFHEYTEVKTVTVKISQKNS

Potency, inconclusive:
COc1cc(C2NC(=S)NC(c3ccccc3)=C2C(C)=O)cc(Cl)c1OCC(=O)O (stereo not drawn) 20 µM [inhibitor, partial curve]
CCOC(=O)CSC1=C(C#N)C(=O)NC(c2ccc(OC)c(OC)c2)S1 (stereo not drawn) 28.2 µM [inhibitor, single point]
CCOC(=O)N(Cc1ccccc1)C(C(=O)O)C(C(=O)O)N(Cc1ccccc1)C(=O)OCC (stereo not drawn) 39.8 µM [inhibitor, single point]
COc1cccc(NC(=S)NCc2ccco2)c1 25.1 µM [inhibitor, single point]
N#Cc1cccc(C(c2nnnn2C2CCCC2)N2CCCCCC2)c1 (stereo not drawn) 11.2 µM [inhibitor, partial curve]
CC1(C)Cc2ccccc2C2CC(O)C(=O)N21 (stereo not drawn) 39.8 µM [inhibitor, single point]
CCCC(=O)Nc1c(O)c2ccccc2[nH]c1=O 25.1 µM [inhibitor, single point]
CCCCc1c(C)c2ccc(OCC(C)=O)cc2oc1=O 31.6 µM [inhibitor, partial curve]
COc1ccc2oc(=O)c(C(=O)NCC3CCCO3)cc2c1 (stereo not drawn) 25.1 µM [inhibitor, partial curve]
CCOc1ccc(NC(=O)CN2CCC(n3cnc4cc(F)ccc43)CC2)cc1 2.82 µM [inhibitor, partial curve, poor fit]
N#Cc1cc2c(=O)n3ccccc3nc2n(CCCn2ccnc2)c1=N 25.1 µM [inhibitor, partial curve]
O=C(O)c1ccc(S(=O)(=O)Nc2ccc(O)c(Sc3nc4ccccc4s3)c2)cc1 20 µM [inhibitor, partial curve]
Cc1ccc(NC(=O)c2cc(-c3ccc(C)o3)nc3ccccc23)nc1 15.8 µM [inhibitor, partial curve]
COc1ccc(-c2ccc3ccccc3n2)cc1 28.2 µM [inhibitor, partial curve]
COc1ccc(N/C(C)=C2/C(=O)C(=O)N(CCO)C2c2ccc(Br)cc2)cc1 (stereo not drawn) 28.2 µM [inhibitor, partial curve]
CO/N=C/c1ccc(Oc2ccc(C)cc2)c([N+](=O)[O-])c1 39.8 µM [inhibitor, single point]
Cc1ccc(NC(=O)c2cc(-c3ccco3)on2)cc1 39.8 µM [inhibitor, single point]
CCOC(=O)c1sc(Nc2cccc(C)c2C)nc1C 39.8 µM [inhibitor, single point]
CN(c1nc2nonc2nc1NC1CC1)C1CCOC1 (stereo not drawn) 37.7 µM [inhibitor, single point]
O=C(NCCN1CCOCC1)C1CCN(c2nc3ccccc3o2)CC1 39.8 µM [inhibitor, single point]
COc1ccc(/C=C/c2nnc(NC(=O)CSc3ccc(Cl)cc3)s2)cc1 31.6 µM [inhibitor, single point]
Cc1nn(-c2ccccc2)c(N)c1Sc1cccc([N+](=O)[O-])c1 39.8 µM [inhibitor, single point]
CC(C)COc1ccc(C(=O)Nc2ccc(NC(=O)c3ccco3)c(Cl)c2)cc1 28.2 µM [inhibitor, partial curve]
O=C(NCCn1ccc2ccccc21)c1ccc(S(=O)(=O)N2CCCCC2)cc1 12.6 µM [inhibitor, partial curve]
Cc1ccc(C2C=C(c3ccccc3)Nc3nc(N4C(=O)CCC4=O)nn32)cc1 (stereo not drawn) 25.1 µM [inhibitor, partial curve]
CCOC(=O)C(C(=O)OCC)=C1OC(=O)c2ccccc21 39.8 µM [inhibitor, single point]
Cc1ccc(C(=O)Nc2ccc3c(c2)CCC3)cc1 18.9 µM [inhibitor, single point]
COc1ccc(-c2ccnc(-c3ccc(OCCCF)cc3)n2)cc1 39.8 µM [inhibitor, single point]
COc1ccccc1C(=O)N1CCc2ccccc21 39.8 µM [inhibitor, single point]
Cn1cc(/C=N\O)nc2c(=O)n(-c3ccccc3)c(=O)nc1-2 28.2 µM [inhibitor, partial curve]
COc1ccc(-c2nc(SCC(=O)NC3CCCC3)c(-c3ccc(OC)cc3)[nH]2)cc1 35.5 µM [inhibitor, single point]
CCSc1nnc2ccc(-c3ccco3)nn12 39.8 µM [inhibitor, single point]
CC1Oc2ccccc2C=C1/C=N/NC(=O)c1ccccc1O (stereo not drawn) 35.5 µM [inhibitor, single point]
CCC(=O)N(Cc1ccc2c(c1)OCO2)Cc1cc2cc(OC)ccc2[nH]c1=O 28.2 µM [inhibitor, partial curve]

Potency, inactive:
O=C(NC(=S)Nc1ccc(N2CCOCC2)cc1)c1cccc([N+](=O)[O-])c1
C/C(O)=C(/C=Nc1ccccc1)C(=O)Nc1ccccc1
C=CCN(CC=C)Cc1nc(N)nc(Nc2ccccc2C)n1
CCC(Oc1ccccc1)C(=O)N1CCN(c2ccccn2)CC1 (stereo not drawn)

Potency, active:
O=C1CC(N2CCC(c3nc4ccccc4o3)CC2)C(=O)N1c1ccc(Cl)c(C(F)(F)F)c1 (stereo not drawn) 8.91 µM
O=[N+]([O-])c1ccc2[nH]c(O)c(N=NC(=S)NCC3CCCO3)c2c1 (stereo not drawn) 0.794 µM
Cc1nc(-c2cccc(S(=O)(=O)N3CCOCC3)c2)cs1 4.47 µM
CCN(CCCNC(=O)c1c(C)cc(=O)oc1C)c1cccc(C)c1 10 µM
COC(=O)C1C(=O)c2c([nH]c(C(=O)OC3CCCC3C)c2C)CC1C (stereo not drawn) 12.6 µM
